# In the supplement of paper PMC3694890:
# ± gives the uncertainty stated by the source. This is one part of the list. Phosphotyrosine is written y.
# Target: GRB2 (endogenous complexes from cell lysate), P62993
# Assay: GRB2 complex binding differential signal (pY peptide minus Ala control peptide) (fluorescence intensity units); higher = stronger GRB2 complex binding
# 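Note: phosphopeptide probes on the chip at 1–4 µM, lysate proteins bound in 20 mM Tris pH 7.0 buffer with 140 mM NaCl, 1% Triton X-100 and 5% glycerol.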
Binder,GRB2 complex binding differential signal (MCF7),GRB2 complex binding differential signal (MCF10A),GRB2 complex binding differential signal (MDA-MB-231),GRB2 complex binding differential signal (T47D)
ySDHRY [BSN_2067/A1],703 ± 350,467 ± 340,314 ± 260,1470 ± 1500
yGSQPN [BMX_224/A1],1160 ± 430,1270 ± 290,384 ± 430,929 ± 1200
yYITTR [YES_222/A1],179 ± 210,348 ± 240,377 ± 340,199 ± 700
yACASP [BRAF_746/A1],1080 ± 360,858 ± 320,904 ± 490,4090 ± 1300
ySSMSD [BSN_1980/A1],1250 ± 460,394 ± 230,596 ± 340,203 ± 1200
ySSVSN [BSN_2060/A1],3190 ± 620,3340 ± 930,288 ± 270,2600 ± 2000
yIPSNY [p59Fyn_132/A1],535 ± 840,374 ± 490,620 ± 360,1060 ± 1100
yAKISD [ZAP70_474/A1],993 ± 380,617 ± 180,512 ± 580,338 ± 1500
yEPPPV [BLNK_96/A1],2620 ± 2300,4410 ± 790,2750 ± 700,2460 ± 1300
yESVAA [VIME_Y276/A1],1090 ± 700,3070 ± 320,2570 ± 680,2620 ± 1200
yLSIVM [VEGFR2_801/A1],387 ± 220,218 ± 270,782 ± 300,272 ± 880
yVTTST [VIME_Y30/A1],3730 ± 1000,3940 ± 1100,3650 ± 440,3770 ± 2600
yVGAIP [VEGFR2_951/A1],1920 ± 780,1260 ± 410,856 ± 390,287 ± 850
yDSNSK [BMX_216/A1],1750 ± 260,1440 ± 640,1140 ± 450,1460 ± 1200
ySPSPS [BSN_1125/A1],1330 ± 340,2660 ± 910,903 ± 510,780 ± 1700
yHAQRI [BSN_1995/A1],1660 ± 570,1820 ± 740,646 ± 310,973 ± 1100
yFASSS [BSN_1471/A1],863 ± 550,110 ± 270,1000 ± 280,2090 ± 1400

Binder,GRB2 complex binding differential signal (MCF7),GRB2 complex binding differential signal (MCF10A),GRB2 complex binding differential signal (MDA-MB-231),GRB2 complex binding differential signal (T47D)
yIDKVR [VIME_Y117/A1],2060 ± 720,862 ± 880,495 ± 320,469 ± 870
yKDFLT [VEGFR2_996/A1],280 ± 240,246 ± 220,1060 ± 610,731 ± 790
yYTARS [ZAP70_492/A1],4630 ± 520,1120 ± 270,1220 ± 430,1990 ± 1400
yIVTEF [YES_345/A1],68.6 ± 560,227 ± 230,633 ± 360,-78.9 ± 2100
yGAEPT [YES_32/A1],799 ± 260,1210 ± 410,1890 ± 530,2280 ± 1200
yVSSVG [BMX_566/A1],2060 ± 460,2740 ± 670,1000 ± 360,2180 ± 1200
ySLGSA [VIME_Y38/A1],1110 ± 320,451 ± 240,367 ± 570,565 ± 1300
yDNTAG [VEGFR2_1214/A1],1230 ± 320,1490 ± 370,1090 ± 410,2110 ± 1200
yTPEPA [ZAP70_292/A1],180 ± 380,637 ± 1000,752 ± 360,1170 ± 1500
yATRSS [VIME_Y61/A1],4520 ± 410,2760 ± 580,1450 ± 480,3650 ± 1300
yGSVTD [BSN_2038/A1],1320 ± 460,454 ± 380,916 ± 480,1100 ± 990
yTARSA [ZAP70_493/A1],2270 ± 590,1640 ± 810,1010 ± 470,1530 ± 1200
yIVLPI [VEGFR2_1175/A1],853 ± 950,2210 ± 570,1840 ± 610,1290 ± 1100
yPQGLP [BSN_1971/A1],452 ± 830,308 ± 540,664 ± 490,1060 ± 1200
yASSPG [VIME_Y53/A1],1650 ± 390,1960 ± 450,1100 ± 310,1050 ± 1200
yGVSPN [ABL1_226/A1],2190 ± 1300,2000 ± 510,551 ± 700,1170 ± 1100
